Several values for one entry are separate records, joined by “and”; a condition that tells them apart may be missing. Equal entries are not always repeated. Among all 2,000 compounds or so, about 45 (2%) were called active.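 The calls were made as follows: active = inhibition above the mean of all tested compounds plus 3 SD (cut at about 49% in these data); inactive = the rest.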 Some of the results follow. Where a SMILES comes first, the peptide text is derived from it.
These compounds were tested against Perilipin-5 (Homo sapiens) + 1-acylglycerol-3-phosphate O-acyltransferase ABHD5 (Homo sapiens) (UniProt Q00G26+Q8WTS1) (assay: blockers of ABHD5 binding to perilipin-5 – cell lysate, split luciferase complementation, luminescence, NIH validation set, pilot screen (AID 493035;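 also: 0% = DMSO only wells while the 100% control is not stated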)). Conditions: split G. princeps luciferase complementation, lysates, 4 h; at 7.9 µM, stronger effect = higher value.
Sequence of UniProt Q00G26 (Q00G26 whole entry, looked up): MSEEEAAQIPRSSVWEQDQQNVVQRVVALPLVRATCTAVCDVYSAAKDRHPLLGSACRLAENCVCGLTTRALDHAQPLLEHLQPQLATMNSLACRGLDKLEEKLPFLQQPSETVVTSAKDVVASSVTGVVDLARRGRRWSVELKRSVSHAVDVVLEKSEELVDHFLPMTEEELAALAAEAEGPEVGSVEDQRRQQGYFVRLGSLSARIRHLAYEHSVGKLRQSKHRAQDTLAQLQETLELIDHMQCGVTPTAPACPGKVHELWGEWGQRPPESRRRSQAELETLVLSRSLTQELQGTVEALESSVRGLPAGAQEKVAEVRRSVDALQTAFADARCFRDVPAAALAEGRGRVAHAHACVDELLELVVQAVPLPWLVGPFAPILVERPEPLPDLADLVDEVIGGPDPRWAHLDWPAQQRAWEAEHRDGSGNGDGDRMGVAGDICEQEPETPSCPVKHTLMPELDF
Sequence of UniProt Q00G26 (Q8WTS1 whole entry, looked up): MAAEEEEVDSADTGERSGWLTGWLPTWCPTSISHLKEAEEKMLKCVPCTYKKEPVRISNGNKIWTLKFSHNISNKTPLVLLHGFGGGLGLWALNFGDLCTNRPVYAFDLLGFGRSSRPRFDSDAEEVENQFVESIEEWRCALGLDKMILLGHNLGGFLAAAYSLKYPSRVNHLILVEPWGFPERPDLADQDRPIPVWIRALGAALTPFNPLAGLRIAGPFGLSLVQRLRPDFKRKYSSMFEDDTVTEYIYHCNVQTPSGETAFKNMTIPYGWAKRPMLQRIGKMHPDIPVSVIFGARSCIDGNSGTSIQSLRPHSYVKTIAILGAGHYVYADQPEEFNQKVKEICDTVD
With `O=C(Nc1cccc(Oc2c(F)c(F)c(F)c(F)c2F)c1)N1C[C@@H]2C[C@@H](C1)c1cccc(=O)n1C2` the inhibition was inactive: 13.7%.
With `COc1cccc(OC2OC3COC(C)(C)OC3C(O)C2NC(C)=O)c1` (stereo not given) the inhibition was inactive: -7.45%.
In the case of `Cn1c(=O)[nH]c(=O)c2c1nc(Br)n2CCCO`, the inhibition is reported as inactive: -2.4%.
`N/C(=N\OC(=O)c1ccc(Br)o1)c1ccccn1` was tested, and the inhibition was inactive: -0.68%.
For `CN1[C@@H]2CC(OC(=O)[C@H](CO)c3ccccc3)C[C@H]1[C@@H]1O[C@@H]12` (stereo not given in full), the inhibition was inactive: -0.98% and inactive: 0.39%.
`O=C(NCc1ccc(N2CCCC2=O)cc1)c1ccc(F)cc1` was tested, and the inhibition was inactive: 7.2%.
For `COc1cc(C(=O)Nc2cccc(-c3nnc(-c4ccco4)o3)c2)ccc1OC(C)=O`, the inhibition was inactive: -3.44%.
With `CCNC(=S)Nc1ccc(OC(F)(F)F)cc1` the inhibition was inactive: -0.14%.
With `O=c1cc(-c2ccc3c(c2)OCCO3)oc2ccc(Cl)cc12` the inhibition was inactive: -8.12%.
`NC(=O)c1cnccn1` was tested, and the inhibition was inactive: -0.64%.
For `Cc1nc2ccccn2c(=O)c1CCN1CCC(C(=O)c2ccc(F)cc2)CC1`, the inhibition was inactive: -3.87%.
`CCCn1c(=O)c2[nH]c(C3CCCC3)nc2n(CCC)c1=O` was tested, and the inhibition was inactive: -1.98%.
In the case of `CCOC(=O)n1c(=O)oc2ccccc21`, the inhibition is reported as inactive: -7.55%.
For `O=C(CCNNC(=O)c1ccncc1)NCc1ccccc1`, the inhibition was inactive: 0.99%.
`Oc1ccc(Oc2ncc(Cl)cc2Cl)cc1` was tested, and the inhibition was inactive: -4.25%.
In the case of `CCOC(=O)N1CCc2[nH]c3ccc(C)cc3c2C1`, the inhibition is reported as inactive: 14.9%.
For `Cc1nc(N[C@@H](Cc2c[nH]c3ccccc23)C(=O)O)c2oc3ccccc3c2n1`, the inhibition was inactive: 4.96%.
With `O=C(Oc1ccccc1)Oc1ccc2c(c1)oc(=O)c1ccccc12` the inhibition was inactive: -3.33%.
In the case of `CCCCCC(=O)O[C@]1(C(C)=O)CC[C@H]2[C@@H]3CCC4=CC(=O)CC[C@]4(C)[C@H]3CC[C@@]21C`, the inhibition is reported as inactive: 3.12%.
With `CNCCCC12CCC(c3ccccc31)c1ccccc12` the inhibition was inactive: -7.66% and inactive: -3.95%.
`O=C(NCCN1CCOCC1)c1ccc(Cl)cc1` was tested, and the inhibition was inactive: -1.5%.
In the case of `Cc1cc(OC(=O)CNC(=O)OC(C)(C)C)c2c(C)cc(=O)oc2c1`, the inhibition is reported as inactive: 10.9%.
In the case of `CC(=O)N(CCC1(c2ccc(C)cc2)CCOC(C(C)C)C1)Cc1ccco1` (stereo not given), the inhibition is reported as inactive: 2.14%.
For `O=C(O)CCn1cnc2ccccc2c1=O`, the inhibition was inactive: 3.76%.
For `O=C(CCCN1C(=O)/C(=C\c2cccs2)SC1=S)Nc1ccccn1`, the inhibition was inactive: -1.47%.
For `O=C1CCCN1CCCn1cnc2c([nH]c3ccc(F)cc32)c1=O`, the inhibition was inactive: 1.78%.
`CC(=O)CCCCn1c(=O)c2c(ncn2C)n(C)c1=O` was tested, and the inhibition was inactive: 8.53%.
`Cc1cccc2c(=O)n3c(nc12)CCCCC3` was tested, and the inhibition was inactive: -2.11%.
With `CC1(C#CC[N+]2(C)CCCCC2)CCC2C(O1)c1ccccc1OC2(C)C` (stereo not given) the inhibition was inactive: 3.83%.
With `Cc1ccc(C(=O)COC(=O)c2cccc(N3C(=O)c4c(C)nc5ccccc5c4C3=O)c2)cc1C` the inhibition was inactive: 3.75%.
`Cc1cc(O)c(C(C)C)cc1C1(c2cc(C(C)C)c(O)cc2C)OC(=O)c2ccccc21` was tested, and the inhibition was inactive: 19.5%.
In the case of `COc1ccc(C2CC(c3ccc([N+](=O)[O-])cc3)=NN2C(=O)c2ccccc2)cc1OC` (stereo not given), the inhibition is reported as inactive: -27.7%.
In the case of `CCCCCC(O)c1cccc(OCc2ccc3ccccc3n2)c1` (stereo not given), the inhibition is reported as inactive: 11.6%.
`CC(=O)N1CC2(C)CN(C(C)=O)CC(C)(C1)C2` was tested, and the inhibition was inactive: 1.29%.
With `O=c1ccn([C@@H]2O[C@H](CO)[C@@H](O)[C@H]2O)c(=O)[nH]1` the inhibition was inactive: 1.08%.
`Cc1cc(OC(C(=O)O)c2ccccc2)c2c(C)c(Cc3ccccc3)c(=O)oc2c1` (stereo not given) was tested, and the inhibition was inactive: 11.8%.
`C[N+]12CCCCC1C(COC(=O)c1ccc3c(c1)OCO3)CCC2` (stereo not given) was tested, and the inhibition was inactive: 1.79%.
In the case of `CCCCNc1cc(C(=O)O)cc(S(N)(=O)=O)c1Oc1ccccc1`, the inhibition is reported as inactive: -1.78%.
In the case of `CC1(C)CC(CC(=O)O)(c2ccc(Cl)cc2)CCO1` (stereo not given), the inhibition is reported as inactive: 3.79%.
In the case of `COc1c2c(nc3occc13)C(CC=C(C)C)(OC)C(O)CC2` (stereo not given), the inhibition is reported as inactive: -4.3%.
`COc1cc(CC(=O)NCCc2ccc(S(N)(=O)=O)cc2)cc(OC)c1OC` was tested, and the inhibition was inactive: 3.06%.
For `COc1ccc(C(=O)CCN2CCc3cc(OC)c(OC)cc3C2)cc1`, the inhibition was inactive: 13.3%.
`Cc1cccc(OCC(=O)Nc2ccc(C(=O)NCC(C)C)cc2)c1` was tested, and the inhibition was inactive: -3.36%.
For `C[C@H]([C@@H](N)C(=O)N[C@@H](C(=O)O)[C@@H]1O[C@H](n2ccc(=O)[nH]c2=O)[C@@H](O)[C@H]1O)[C@@H](O)c1ccc(O)cn1`, the inhibition was inactive: 8.59%.
In the case of `CC(=O)NC(CC(C)C)C(=O)NC(Cc1ccccc1)C(N)=O` (stereo not drawn) (Ac-Leu-Phe-NH2; configuration not given here), the inhibition is reported as inactive: -2.12%.
For `Cc1ccnc(NS(=O)(=O)c2ccc(N)cc2)n1`, the inhibition was inactive: -3.85%.
`Cc1c(OCC(=O)NC(Cc2c[nH]c3ccc(O)cc23)C(=O)O)ccc2c3c(c(=O)oc12)CCC3` (stereo not given) was tested, and the inhibition was inactive: -12.8%.
With `NC(=O)OCC(COC(N)=O)c1ccccc1` the inhibition was inactive: -5.61%.
`COc1cc(CNc2ccc(C)c(C)c2)cc(OC)c1OC` was tested, and the inhibition was inactive: 1.18%.
In the case of `Cc1ccc(C2CC(c3cccs3)=NN2C(=O)c2ccco2)o1` (stereo not given), the inhibition is reported as inactive: 0.65%.
In the case of `O=C(CNC(=O)OCc1ccccc1)NC1CCCCCC1`, the inhibition is reported as inactive: -6%.
For `CC(=O)N[C@@H](CS)C(=O)O`, the inhibition was inactive: -2.08%.
With `O=C(OCC(O)C(O)COC(=O)c1ccccc1)c1ccccc1` (stereo not given) the inhibition was inactive: -5.65%.
In the case of `O=C(CCc1ccccc1)Nc1ccccc1C(F)(F)F`, the inhibition is reported as inactive: -12.3%.
With `CC(=O)c1c(C)c(C)c2n1CCn1c(C)ccc1-2` the inhibition was inactive: 8.49%.
`CC1(C)CC(=O)C(C2(O)C(=O)Nc3ccccc32)CO1` (stereo not given) was tested, and the inhibition was inactive: -12.2%.
With `O=C(CCCCC(=O)NC1CCCC1)NC1CCCC1` the inhibition was inactive: 3.84%.
`CC[C@H](C)C(=O)O[C@H]1C[C@@H](C)C=C2C=C[C@H](C)[C@H](CC[C@@H]3C[C@@H](O)CC(=O)O3)[C@H]21` was tested, and the inhibition was inactive: 6.1%.
With `Cc1nc(C2CC(=O)OC23CCCCC3)cs1` (stereo not given) the inhibition was inactive: -14.9%.
`COc1ccc(C(=O)O)cc1F` was tested, and the inhibition was inactive: 1.71%.
`COc1cccc(OCc2cc(C3Nc4ccccc4C(=O)N3Cc3ccco3)ccc2OC)c1` (stereo not given) was tested, and the inhibition was inactive: 33.7%.
`CCN(CC)C(=S)SSC(=S)N(CC)CC` was tested, and the inhibition was active: 95.2%.
For `Nc1ccc2cn[nH]c2c1`, the inhibition was inactive: -10.6%.
`CCOC(=O)C(NC(C)=O)C(O)c1ccc([N+](=O)[O-])cc1` (stereo not given) was tested, and the inhibition was inactive: -12%.
For `COc1cc2cc(C(=O)O)n(C)c2c(OC)c1OC`, the inhibition was inactive: 6.31%.
`O=C1OC(Nc2ccc3c(c2)OCO3)c2ccccc21` (stereo not given) was tested, and the inhibition was inactive: 16.9%.
`CCNC(=O)c1c(N)sc2c1CCCCC2` was tested, and the inhibition was inactive: 39.1%.
With `Nc1c2c(nc3ccccc13)CCCC2` the inhibition was inactive: 9.33%.
In the case of `COc1ccc(C(C)N2CC34C=CC(O3)C(C(=O)OCC(C)C)C4C2=O)cc1` (stereo not given), the inhibition is reported as inactive: -7.66%.
`COc1cc2c3c(c1)C1(C(=O)N3C(C)(C)C=C2C)C(C#N)=C(N)Oc2cc(C)oc(=O)c21` (stereo not given) was tested, and the inhibition was inactive: -5.05%.
For `COc1cc2c(cc1OC)C(C)=NC1(CCCCC1)C2`, the inhibition was inactive: -3.54%.
With `Oc1ccc(COCc2ccccc2)c2cccnc12` the inhibition was inactive: 6.53%.
With `O=C(O)c1cc2cc(Cl)cc(Cl)c2oc1=O` the inhibition was inactive: 4.45%.
In the case of `O=C(NC(Nc1ccccn1)C(Cl)(Cl)Cl)c1ccccc1` (stereo not given), the inhibition is reported as inactive: 11.4%.
In the case of `C[C@]12C[C@H](O)[C@H]3[C@@H](CCC4=CC(=O)CC[C@@]43C)[C@@H]1CC[C@@H]2C(=O)CO`, the inhibition is reported as inactive: 3.18%.
For `O=C(NCCNc1ccc(Cl)cc1[N+](=O)[O-])c1cccnc1`, the inhibition was inactive: 4.98%.
In the case of `COc1ccc(NC(=S)NCCc2c[nH]c3ccccc23)cc1`, the inhibition is reported as inactive: -5.45%.
For `CC(C)Oc1ccc(C2CC(=O)N(c3ccc(C(=O)O)cc3)C2=O)cc1` (stereo not given), the inhibition was inactive: -5.83%.
In the case of `c1ccc(-c2ccccn2)nc1`, the inhibition is reported as inactive: 4.87%.
With `CCSc1nc(O)c(C2OC(=O)c3c2ccc(OC)c3OC)c(=O)n1CC` (stereo not given) the inhibition was inactive: 0.24%.
In the case of `COCCOC(=O)C1=C(N)OC2=C(C(=O)CCC2)C1c1cccnc1` (stereo not given), the inhibition is reported as inactive: 0.01%.
For `Cn1c2ccc(CC(=O)O)cc2c2cc(CC(=O)O)ccc21`, the inhibition was inactive: 5.41%.
For `NS(=O)(=O)c1cc2c(cc1Cl)NC(CSCc1ccccc1)=NS2(=O)=O`, the inhibition was inactive: -6.59%.
For `CCNC(=O)c1sc2cc(C)ccc2c1Cl`, the inhibition was inactive: -3.52%.
In the case of `COc1cc(NC(=O)N[C@@H](Cc2ccccc2)C(=O)O)cc(OC)c1`, the inhibition is reported as inactive: -7.47%.
In the case of `Cc1cc(NS(=O)(=O)c2ccc(N)cc2)no1`, the inhibition is reported as inactive: -7.6%.
With `COc1ccc2[nH]c3c(c2c1)CCn1c-3nc2ccccc2c1=O` the inhibition was inactive: -4.19%.
`Cc1ccc2nc(NC3=NC(CC(=O)O)C(=O)N3)nc(C)c2c1` (stereo not given) was tested, and the inhibition was inactive: 2.57%.
With `CC(=O)[C@@]1(O)CC[C@H]2[C@@H]3C[C@H](C)C4=CC(=O)CC[C@]4(C)[C@H]3CC[C@@]21C` the inhibition was inactive: -6.6%.
For `CC1(C)S[C@@H]2[C@H](NC(=O)C(C(=O)O)c3ccccc3)C(=O)N2[C@H]1C(=O)O` (stereo not given in full), the inhibition was inactive: -2.82%.
In the case of `OCC1(CCOc2ccccc2)CCN(CCCn2cccn2)CC1`, the inhibition is reported as inactive: 1.14%.
For `CCOC(=O)c1ncn2c1CN(C)C(=O)c1cc(F)ccc1-2`, the inhibition was inactive: -14.1%.
For `CCOC(=O)Cc1c(C)nc(N)[nH]c1=O`, the inhibition was inactive: -9.42%.
With `COc1cc(SC)ccc1C(=O)NC(C)C` the inhibition was inactive: 0.69%.
For `COc1ccc(C(=O)NCCC2=CCCCC2)cc1[N+](=O)[O-]`, the inhibition was inactive: 4.64%.
